The list shows a part of the results.
These sequences were tested against T1, OsWOX13 (Oryza sativa, UniProt Q5QMM3 1-267) (assay: protein-binding microarray (RPBM); PBS, 2% BSA, 51.3 ng/ul salmon testes DNA, 50 uM zinc acetate, 200 nM TF, 25 C, 1 h; high values mean tight binding). Conditions: protein: recombinant; tags: N-terminal polyhistidine and DsRed monomer fusion (pET32a); label: CyDye5-dUTP incorporated in the synthesized complementary strand; 3' TTTTT single-stranded linker to array surface; dsDNA, one strand shown.
T1 sequence: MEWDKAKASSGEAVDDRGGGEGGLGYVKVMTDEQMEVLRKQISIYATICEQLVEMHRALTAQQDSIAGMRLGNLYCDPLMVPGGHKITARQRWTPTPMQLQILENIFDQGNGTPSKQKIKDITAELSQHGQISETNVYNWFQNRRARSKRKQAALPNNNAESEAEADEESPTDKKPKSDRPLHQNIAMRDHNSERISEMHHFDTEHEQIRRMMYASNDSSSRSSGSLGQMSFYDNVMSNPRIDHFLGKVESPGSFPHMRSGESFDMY
Method in brief: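 Binding signal is reported as fluorescence intensity per feature (arbitrary units) from an Axon 4000B scanner. Incubation used 200 nM of each Ni–NTA-purified, N-terminally polyhistidine- and DsRed-fused transcription factor from E. coli BL21-CodonPlus on a double-stranded custom Agilent array for 1 h at 25 °C, with 50 µM zinc acetate in the buffer, followed by washing.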

Sequence	binding signal
TTGATTGGAATACGGTGGATGATACTGAAGTAGACAAGAACGGAGTCACCTAGTGCAG	17700 fluorescence intensity (a.u.)
ATAGACGCGATTGGACTTTAATTGCCGTCAGGGATTTTAACGGAGTCACCTAGTGCAG	10800 fluorescence intensity (a.u.)
CGTGGGGCCATGATTGGCAAGGTGATTTTGGCTGCTCAAACGGAGTCACCTAGTGCAG	28000 fluorescence intensity (a.u.)
AGACTAATAGATTAGTCTAACTACCGAAACAACCTGCGTCCGGAGTCACCTAGTGCAG	37700 fluorescence intensity (a.u.)
TCAAACAAACCAATCAATCAATCAATCAGGGGATTCTTACCGGAGTCACCTAGTGCAG	42300 fluorescence intensity (a.u.)
AACTGAAATTAATTAATTACATTGTTGTAGCTCCACAAATCGGAGTCACCTAGTGCAG	40700 fluorescence intensity (a.u.)
TTGTGAAGAATTAATTACAATAAACACAATAGTCATTGTGCGGAGTCACCTAGTGCAG	9620 fluorescence intensity (a.u.)
CAGATTAACAGGTAGAACAAGCAGTACACTGATACGATACCGGAGTCACCTAGTGCAG	10700 fluorescence intensity (a.u.)
ACTAATTTCATAACTCTCCTGGAAACCGTGAGATGAATCTCGGAGTCACCTAGTGCAG	6360 fluorescence intensity (a.u.)
ATCATCTATCAATCCCTACCATCGCCCTCTTTCTGTTTTGCGGAGTCACCTAGTGCAG	4380 fluorescence intensity (a.u.)
TTGCTTACTTAGTTAAAATTTAAATTTTCAATGTTAAATTCGGAGTCACCTAGTGCAG	5160 fluorescence intensity (a.u.)
TTTTAATAATTAATTAGTTATATGCTAATCACGTTTCTCACGGAGTCACCTAGTGCAG	38400 fluorescence intensity (a.u.)
AGAAATTCAACTATAATTAGCCATAAAATATGGCGACATCCGGAGTCACCTAGTGCAG	5640 fluorescence intensity (a.u.)
GAGGACTGGGGAGGGCGGGGAGAGGGGAGGGCGTCGCGTGCGGAGTCACCTAGTGCAG	7080 fluorescence intensity (a.u.)
TCATGACAAATCATCCGTGTGACTGTCACTTGTGAGGCTGCGGAGTCACCTAGTGCAG	6380 fluorescence intensity (a.u.)
CTAAACTGGCAGCTTCCTAGTTGTCTATGTTCAGCTGGATCGGAGTCACCTAGTGCAG	19500 fluorescence intensity (a.u.)
GGAGGAAATTCAATCAGGAGGAAGATGAGGGATGACTTATCGGAGTCACCTAGTGCAG	5290 fluorescence intensity (a.u.)
CATGATGGGTGGTGCCATTTATACGATGTGCCCGTAACCGCGGAGTCACCTAGTGCAG	3310 fluorescence intensity (a.u.)
ATGAATAATTTGAGTGGTGAATTTTCCTTCTTCTGGCTGACGGAGTCACCTAGTGCAG	14200 fluorescence intensity (a.u.)
CCGTGTAATGTTGATTGCGTCTTTCTAGGTTTAGTTTGCACGGAGTCACCTAGTGCAG	14200 fluorescence intensity (a.u.)
CAGGTACGTTATTGAGTGATTTGTTATTCTGATTTACCTTCGGAGTCACCTAGTGCAG	3800 fluorescence intensity (a.u.)

Sequence	binding signal
TGCTAAATTAGTTAAACTTATCTAACCTTAAGAATGACAACGGAGTCACCTAGTGCAG	14700 fluorescence intensity (a.u.)
CAAATTCAATTCAATTTTAATTTATTTTATCTGCATGCGACGGAGTCACCTAGTGCAG	9020 fluorescence intensity (a.u.)
ATGTTGATTATCTCTCATGCATTATTATTATTTAATTAATCGGAGTCACCTAGTGCAG	22000 fluorescence intensity (a.u.)
ATGGGAACTAGAATTGATTACCTGATGACAATGTAACCACCGGAGTCACCTAGTGCAG	28300 fluorescence intensity (a.u.)
CTTGATTTTATAAAATAGAAAAGAAAACCAATGTCAGCAACGGAGTCACCTAGTGCAG	20700 fluorescence intensity (a.u.)
ACAGATTAGGCTGTCAGATTTACTACTGGGAGTATGAACCCGGAGTCACCTAGTGCAG	6870 fluorescence intensity (a.u.)
TTTCAGCACATCATTCCAATTTCAATCATATTTCCAAACTCGGAGTCACCTAGTGCAG	4200 fluorescence intensity (a.u.)
CTATTTCATTAGACCCTAAACAGTCTTTTGGCTCATTTTACGGAGTCACCTAGTGCAG	4570 fluorescence intensity (a.u.)
TTTCTAAATTGTATTTCTATATGGACTCTAGTCTCCTCTTCGGAGTCACCTAGTGCAG	4990 fluorescence intensity (a.u.)
GTCATTCTCTAACCAATTTGATTAGCTTGTTCATAGTAATCGGAGTCACCTAGTGCAG	8230 fluorescence intensity (a.u.)
AATACTAAATTATCAAGTTCTTGTACTAGAACGCGCCTACCGGAGTCACCTAGTGCAG	3770 fluorescence intensity (a.u.)
TAGCAAATATAAATTACACTGCAGAAAGGCATCTGGACAGCGGAGTCACCTAGTGCAG	4380 fluorescence intensity (a.u.)
CCGAATTATGACCAAATTTCCAACATAAATTTCTTACTTTCGGAGTCACCTAGTGCAG	4010 fluorescence intensity (a.u.)
CGGTAATTACTACTCCCTCCGTCCCAAAATAAGTGCAGTTCGGAGTCACCTAGTGCAG	26300 fluorescence intensity (a.u.)
GTATAACTGGACGAATTCGAGGGCGAATTCGATTGAAGGACGGAGTCACCTAGTGCAG	3370 fluorescence intensity (a.u.)
TGACATTAATTAGCTTCAACGATTTGATGGATTTGTTGAGCGGAGTCACCTAGTGCAG	36500 fluorescence intensity (a.u.)
CCTAATTTGCGTGATTGGATTGGTTGGTTGTGTTGTAATGCGGAGTCACCTAGTGCAG	65000 fluorescence intensity (a.u.)
GGCTTTCCAGTTGATAAATCAATCATCATCCCCTTGATCGCGGAGTCACCTAGTGCAG	8410 fluorescence intensity (a.u.)
TACTTCATTTGTTTAATTATTTCATGCACTACGGTTTTCTCGGAGTCACCTAGTGCAG	4420 fluorescence intensity (a.u.)
CTAGCAAATTCATAATTTAAATCTTTCAATTTTAACATCACGGAGTCACCTAGTGCAG	4440 fluorescence intensity (a.u.)
AAACATTAATTAAATCTAATCTTTCATGTTTGTAATAGTTCGGAGTCACCTAGTGCAG	10800 fluorescence intensity (a.u.)

Sequence	binding signal
GCGTAAACTGAACACACCCTGTATCTACACCATCGATCACCGGAGTCACCTAGTGCAG	3760 fluorescence intensity (a.u.)
GTGATTATCTGAACAAGATTCCACGATGGAGTGTCTGGACCGGAGTCACCTAGTGCAG	5640 fluorescence intensity (a.u.)
GCAATAATAATTACTGATAGCCACCACTATCAATAATAATCGGAGTCACCTAGTGCAG	12600 fluorescence intensity (a.u.)
TAATGATTGAAATGTATCTTAGCCCAATTCATCTGGAGTACGGAGTCACCTAGTGCAG	51200 fluorescence intensity (a.u.)
TCTGTCGTCAGTGAATTAATTATCACAAACACGAATAATGCGGAGTCACCTAGTGCAG	12000 fluorescence intensity (a.u.)
TTATATTATAAAATTTTAATTTATTATAAAATATTTGCTTCGGAGTCACCTAGTGCAG	8470 fluorescence intensity (a.u.)
GAATAATTGCGCTTTGTCATGGCATTTGCATGAGCTTCAACGGAGTCACCTAGTGCAG	22700 fluorescence intensity (a.u.)
AAATTCCTGATTAAATCAGCTGGGTGGACAAAATCTTTGACGGAGTCACCTAGTGCAG	11600 fluorescence intensity (a.u.)
AATTCCATCATCCATCATCACACAGCTCACTGACCAGCAGCGGAGTCACCTAGTGCAG	3920 fluorescence intensity (a.u.)
GAATGATGACTGGACTGCCACACGTACACCACGTAGACCACGGAGTCACCTAGTGCAG	9710 fluorescence intensity (a.u.)
ACTAATCCATCATGAGATGATGGGCCGACGCAGCCTCTCGCGGAGTCACCTAGTGCAG	5450 fluorescence intensity (a.u.)
CAGAATTGGAAGATGTGGTATTGGTGAAAACTTCTGAGCCCGGAGTCACCTAGTGCAG	6100 fluorescence intensity (a.u.)
CTTCGTTGAGTGATTTGGTTGGATATCGGAAGGAAAGAGACGGAGTCACCTAGTGCAG	3680 fluorescence intensity (a.u.)
ATTATTATGATGTAATTATGCCAAGTTATTATATATAAATCGGAGTCACCTAGTGCAG	4590 fluorescence intensity (a.u.)
TTCTAATAATTTGATATTAGGTCATTCCCTAATATTCGTGCGGAGTCACCTAGTGCAG	25000 fluorescence intensity (a.u.)
TGATAACTAACAATTTTGGTACTAAACCGATGGTCTAAGTCGGAGTCACCTAGTGCAG	4060 fluorescence intensity (a.u.)
ATGATCCTTTAATTGTCATGCAGCGCTTGACTGTTCCTTTCGGAGTCACCTAGTGCAG	3650 fluorescence intensity (a.u.)
AGAGAATTATAAATTGAGTATTATTTATTACAAACCTATACGGAGTCACCTAGTGCAG	6560 fluorescence intensity (a.u.)
TTAATGTTAAATTTAATGAAACTAATTTAGTGTTGTAGATCGGAGTCACCTAGTGCAG	27000 fluorescence intensity (a.u.)
ATTAAAATAAATTACTCTAATGTCATTCTAGGGCATTCTACGGAGTCACCTAGTGCAG	9830 fluorescence intensity (a.u.)
CATCTTTGACCGGTTAAATTAGATCCTGTTCTAGATGAGGCGGAGTCACCTAGTGCAG	3480 fluorescence intensity (a.u.)

Sequence	binding signal
GTTTAAATTTGAATAGTGTAAGGGTCAATTTTATTCGAGACGGAGTCACCTAGTGCAG	5050 fluorescence intensity (a.u.)
GATTTTCTATGTCAAAAGGATAATTATTAATGCTAGCAATCGGAGTCACCTAGTGCAG	3690 fluorescence intensity (a.u.)
ATGGAAATTGATTAGGAGATTATTGATGCGATAAGTAGTACGGAGTCACCTAGTGCAG	37000 fluorescence intensity (a.u.)
GAAATTAATTTAGCTCTACATCCGTTCTGTTTATGAATAACGGAGTCACCTAGTGCAG	29700 fluorescence intensity (a.u.)
GTAAAGTTATTGCAAAATTTAAAATTACGTTGTCATTGTACGGAGTCACCTAGTGCAG	3930 fluorescence intensity (a.u.)
ATGCCTAATTAATAGATAACTGTCATGTCGCATCCTTCTTCGGAGTCACCTAGTGCAG	28700 fluorescence intensity (a.u.)
CTCTGATTGGTTACAAACTTTATAGTTCTTTAGGGAGGCTCGGAGTCACCTAGTGCAG	49700 fluorescence intensity (a.u.)
CATTTAATGATTAATTTATTATTTAAATATTATTGAAATGCGGAGTCACCTAGTGCAG	50700 fluorescence intensity (a.u.)
CATAACACACGACAATTGACAAGCGAAACGCCATGGGAAACGGAGTCACCTAGTGCAG	6850 fluorescence intensity (a.u.)
GTCAATTACCAAGTTCATTCATAATTTGAAGTTACGGGCACGGAGTCACCTAGTGCAG	10800 fluorescence intensity (a.u.)
ATAATTGAAGAAAGCTCGATTGGTTTCTTAGTTTCTAGATCGGAGTCACCTAGTGCAG	19000 fluorescence intensity (a.u.)
GAGATTAGTTGATTTAGATTTTGAATTGTGCAAAACCGTTCGGAGTCACCTAGTGCAG	32000 fluorescence intensity (a.u.)
ATAAAAGATATGATTGAGATCAACAGCGAAATGACAAAATCGGAGTCACCTAGTGCAG	20600 fluorescence intensity (a.u.)
GGTTAACGAGATGATAATCGTCCCATGACTTGGAACAAATCGGAGTCACCTAGTGCAG	5240 fluorescence intensity (a.u.)
CTTCAAGTTTAACTAAACATAAATTGATCATTATCAAAATCGGAGTCACCTAGTGCAG	7200 fluorescence intensity (a.u.)
TTTTAGGTACCACTGTCTACTATGACAACAGTGATGGTCGCGGAGTCACCTAGTGCAG	8250 fluorescence intensity (a.u.)
ATGCTCGTGATTACTTCGCCAATCTTAAAATATATTACCCCGGAGTCACCTAGTGCAG	16600 fluorescence intensity (a.u.)
TCGCAGACTGAATTTTCATTGTAAGGTACGTATAGCTGGTCGGAGTCACCTAGTGCAG	3330 fluorescence intensity (a.u.)
ATATTATATACTAAATTAACTTATTTTGAATTGGAGGATCCGGAGTCACCTAGTGCAG	3590 fluorescence intensity (a.u.)
CATTTTGTAATTTGCCCTTGAACATGTGTTGTTACAATTTCGGAGTCACCTAGTGCAG	3150 fluorescence intensity (a.u.)
TTCTTTAATTTCTTCGGTAATTTAAGGCTGCGTAGCGAGTCGGAGTCACCTAGTGCAG	26800 fluorescence intensity (a.u.)

Source: publication PMC7819943, “Rice protein-binding microarrays: a tool to detect cis-acting elements near promoter regions in rice”
